# Test results: the RNAGym collection of RNA variant scans (doi:10.7554/elife.90254)
# The source gives no read counts; variants with many changes may rest on few reads.
# B1: OR4K15 (parent)
# chain: GUUAACGGUCAUAGGCCAUGGAAACUAGGAGCACCAUUUCGCUGCCAGUGAAGAAAUGAACAAAGAAAAUCUGGGCCAGGCAGGCAUCAAAAGAAAUAGUCUUGCGCUCAACCAGAAAGUCUGUAAUCAUUUUAAGGGUA
# Variants of: B1
# Experiment: self-cleavage, relative activity (ratio to wild type); higher = more cleavage; in vitro, sequencing; the parent is a self-cleaving ribozyme
row,Variant,self-cleavage
1,GUUAACGGUCAUAGGCCAUGGAAGCUAGGAGCACCAUUUCGCUGCCAGCGAAGAAAUGGACAAAGAGAAUCUGGGCCAGGCAGACAUCAAAAGAAAUAGUCUUGCGCCCAACCAGAAAGUCUGUAAUCAUUCUAAGGGUA,0
2,GUUAACGGUCAUAGGCCAUGGAAGCUAGGAGCACCAUUUCGCUGCCAGCGAAGAAAUGUACAAAGAAAGUCUGGGCCAGGCAAGCAUCAAAAGAAAUAGCCUUGCGCUCAACCAGAAAGUCUGUAAUCAUUUUAAGGGUA,0.67
3,GUUAACGGUCAUAGGCCAUGGAAGCUAGGAGCACCAUUUCGCUGCCAGCGAAGAAAUGAACAAAGAAAAUCUGGGCCAGGCAGGCAUCAAAAGAGAUAGUCUUGCGCUCAACCAGAAAGUCUGUAAUCAUUUUAAGGGUA,1.12
4,GUUAACGGUCAUAGGCCAUGGAAGCUAGGAGCACCAUUUCGCUGCCAGCGAAGAAAUGAACAAAGAAAAUCUGGGCCAGGCAGGCAUCAAAAGAAAUAGUCUUGCGCUCAACCAGAGAGUCUGUAAUCAUCUUAAGGGUA,1.47
5,GUUAACGGUCAUAGGCCAUGGAAGCUAGGAGCACCAUUUCGCUGCCAGCGAAGAAAUGAACAAAGAAAAUCUGGGCCAGGCAGGCAUCAAAAGAAAUAGUCUUGCGCUCAACCAGAAAGUCUGUAAUCAUUUUAAGGGUU,1.57
6,GUUAACGGUCAUAGGCCAUGGAAGCUAGGAGCACCAUUUCGCUGCCAGCGAAGAAAUGAACAAAGAAAAUCUGGGCCAGGCAGGCAUCAAAAGAAAUAGUCUCGCGCUCAACCAGAAAGCCUGUAAUCAUUUUAAGGGUA,0.68
7,GUUAACGGUCAUAGGCCAUGGAAGCUAGGAGCACCAUUUCGCUGCCAGUGAAGAAAAGAACAGAGAAAAUCGGGGCCAGGCAGGCAUCAAAAGAAAUAGUCUUGCGCUCAACCAGAAAGUCUGUAAUCAUUUUAAGGGUA,0.38
8,GUUAACGGUCAUAGGCCAUGGAAGCUAGGAGCACCAUUUCGCUGCCAGUGAAGAAAAGAACAAAGAAAAUCUGGGCCAGGCAGGCAUCAAAAGAAAUAGUCUUGCGCUCAACCAGAAAGACUGUAAUCAUUUUAAGGGUA,0.62
9,GUUAACGGUCAUAGGCCAUGGAAGCUAGGAGCACCAUUUCGCUGCCAGUGAAGAAACGAACAAAGAAAAUCUGGGCCGGGCAGGCAUCAAAAGGAAUAGUCUUGCGCUCAACCAGAAAGUCUGUAAUCAUUUUAAGGGUA,0.38
10,GUUAACGGUCAUAGGCCAUGGAAGCUAGGAGCACCAUUUCGCUGCCAGUGAAGAAACGAACAAAGAAAAUCUGGGCCUGGCAGGCAUCAAAAGAAAUAGUCUUGCGCUCAACCAGAAAGUCUGUAAUCAUUUUAAGGGUA,0.24
11,GUUAACGGUCAUAGGCCAUGGAAGCUAGGAGCACCAUUUCGCUGCCAGUGAAGAAACGAACAAAGAAAAUCUGGGCCAGGCAGGCAUCAAGAGAAAUAGUCUUGCGCUCAACCAGAAAGUCUGUAACCACUUUAAGAGUA,0.88
12,GUUAACGGUCAUAGGCCAUGGAAGCUAGGAGCACCAUUUCGCUGCCAGUGAAGAAACGAACAAAGAAAAUCUGGGCCAGGCAGGCAUCAAAAGAAAUAGUCUUGCGCUCAACCAGGAAGUCUGUAAUCAUUUUAAGGGUA,0.07
13,GUUAACGGUCAUAGGCCAUGGAAGCUAGGAGCACCAUUUCGCUGCCAGUGAAGAAAUGAACAAAGAAAAACUGGGCCAGGCAGGCGUCAAAAGAAAUAGUCUUGCGCUCAACCAGAAAGUCUGUAAUCAUUUUAAGGGUA,0.43
14,GUUAACGGUCAUAGGCCAUGGAAGCUAGGAGCACCAUUUCGCUGCCAGUGAAGAAAUGAACAAAGAAAAUCCGGGCCAGGCAGGCAUCGAAGGAAAUAGUCUUGCGCUCAACCAGAAAGUCUGUAAUCAUUUUAAGGGUA,0.25
15,GUUAACGGUCAUAGGCCAUGGAAGCUAGGAGCACCAUUUCGCUGCCAGUGAAGAAAUGAACAAAGAAAAUCCGGGCCAGGCAGGCAUCGAAAGAAAUAGUCUUGCGCUCAACCAGAAAGUCAGUAAUCAUUUUAAGGGUA,0.16
16,GUUAACGGUCAUAGGCCAUGGAAGCUAGGAGCACCAUUUCGCUGCCAGUGAAGAAAUGAACAAAGAAAAUCCGGGCCAGGCAGGCAUCAAAAGAAAUAGUCUUGCGCUCAACCAGAAAGUCUGUAACCAUUUUAAGGGUG,0.12
17,GUUAACGGUCAUAGGCCAUGGAAGCUAGGAGCACCAUUUCGCUGCCAGUGAAGAAAUGAACAAAGAAAAUCUGGGCCAGGCAGGCAACAAAAGGAAUAGUCUUGCGCUCAACCAGAAAGUCUGUAAUCAUUUUAAGGGUA,1.91
18,GUUAACGGUCAUAGGCCAUGGAAGCUAGGAGCACCAUUUCGCUGCCAGUGAAGAAAUGAACAAAGAAAAUCUGGGCCAGGCAGGCACCAAAAGAGAUAGUCUUGCGCUCAACCAGAAAGUCUGUAAUCAUCUUAAGGGUA,0.51
19,GUUAACGGUCAUAGGCCAUGGAAGCUAGGAGCACCAUUUCGCUGCCAGUGAAGAAAUGAACAAAGAAAAUCUGGGCCAGGCAGGCACCAAAAGAAAUAGUCUUGCGCUCAACCCGAAAGUCUGUAAUCAUUUUAGGGGUA,0.03
20,GUUAACGGUCAUAGGCCAUGGAAGCUAGGAGCACCAUUUCGCUGCCAGUGAAGAAAUGAACAAAGAAAAUCUGGGCCAGGCAGGCACCAAAAGAAAUAGUCUUGCGCUCAACCAGAAAGUCUGUGAUCAUUUUAAGGGUA,0.33
21,GUUAACGGUCAUAGGCCAUGGAAGCUAGGAGCACCAUUUCGCUGCCAGUGAAGAAAUGAACAAAGAAAAUCUGGGCCAGGCAGGCACCAAAAGAAAUAGUCUCGCGCUCAACCAGAGAGUCUGUAAUCAUUUUAAGGGUA,0.98

row,Variant,self-cleavage
1,GUUAACGGUCAUAGGCCAUGGAAGCUAGGAGCACCAUUUCGCUGCCAGUGAAGAAAUGAACAAAGAAAAUCUGGGCCAGGCAGGCAUCAAAAGAAAUAGUCUCGCGCCCGACCAGAAAGUCUGUAAACAUUUUAAGGGUA,0.02
2,GUUAACGGUCAUAGGCCAUGGAAUCUGGGAGCACCAUUUCGCUGCCAGUGAAGAAAUGAACAAAGAAAAUCUGGGCCAGGCAGGCAUCAAAAGAAAUAGUCUUGCGCUCAACCAGAAAGCCUGUAAUCAUUUCAAGGAUA,1.89
3,GUUAACGGUCAUAGGCCAUGGAAUCUAGGAGCGCCAUUUCGCUGCCAGUGAAGAAAUGAACAAAGAAAAUCUGGGCCAGGCAGGCAUCAAAAGGAAUAGUCUUGCGCUCAACCAGAAAGUCUGUGAUCAUUUUAAGGGUG,0.19
4,GUUAACGGUCAUAGGCCAUGGAAUCUAGGAGCGCCAUUUCGCUGCCAGUGAAGAAAUGAACAAAGAAAAUCUGGGCCAGGCAGGCAUCAAAAGAGAUAGUCUUGCGCUCAACCAGAAUGUCUGUAAUCAUUUUAAGGGUA,1.4
5,GUUAACGGUCAUAGGCCAUGGAAUCUAGGAGCGCCAUAUCGCUGCCAGUGAAGAAAUGAACAAAGAAAAUCUGGGCCUGGCAGGCAUCAAAAGAAAUAGUCUUGCGCUCAACCAGAAAGUCUGUAAUCAUUUUAAGGGUA,0.09
6,GUUAACGGUCAUAGGCCAUGGAAUCUAGGAGCACCGUUUCGCUGCCAGUGAAGAAGUGAACAAAGAAAAUCUGGGCCAGGCAGGCAUCAAAAGAAAUAGUCUUGCGCUCAACCAGAAAGUCUGUAAUCAUUUUAAGGGUA,0.57
7,GUUAACGGUCAUAGGCCAUGGAAUCUAGGAGCACCAUUUCGCUGCCAGUGGAGAAAUGAACUGAGAAAAUCUGGGCCAGGCAGGCAUCAAAAGAAAUAGUCUUGCGCUCAACCAGGAAGUCUGUAACCAUUUUAAGGGUA,0.4
8,GUUAACGGUCAUAGGCCAUGGAAUCUAGGAGCACCAUUUCGCUGCCAGUGAUGAAAUGAACGAAGAAAAUCUGGGCCAGGCAGGCAUCAAAAGAAAUAGUCUUGCGCUCAACCAGAAAGUCUGUAAUCAUUUUAAGGGUA,1.76
9,GUUAACGGUCAUAGGCCAUGGAAUCUAGGAGCACCAUUUCGCUGCCAGUGAAGGAAUGAGCAAAGAAAAUCUGGGCCAGGCAGGCAUCGAAAGAAAUAGUCUUGCGCUCAACCAGAAAGUCUGUAAUCAUUUUAAGGGUA,0.33
10,GUUAACGGUCAUAGGCCAUGGAAUCUAGGAGCACCAUUUCGCUGCCAGUGAAGAAGUGAACAAAGAAAAUCUGGGCCGGGCAGGCAUCAAGAGAAAUAGUCUUGCGCUCAACCAGAAAGUCUGUAAUCACUUUAAGGGUA,0.09
11,GUUAACGGUCAUAGGCCAUGGAAUCUAGGAGCACCAUUUCGCUGCCAGUGAAGAAAUGGACAAAGAAGAUCUGGGCCAGGCAGGCAUCAAAAGAAAUAGUCUUGCGCUCAACCGGAAAGUCUGUAAUCAUUUUAAGGGUA,0.43
12,GUUAACGGUCAUAGGCCAUGGAAUCUAGGAGCACCAUUUCGCUGCCAGUGAAGAAAUGGACAAAGAAAAUCUGGGCCAGGCAGGCAUCAGAAGAAAUAGUCUUGCGCUCAACCAGAAAGUCUGUAAUCAUUUUAAGGGUA,0.92
13,GUUAACGGUCAUAGGCCAUGGAAUCUAGGAGCACCAUUUCGCUGCCAGUGAAGAAAUGAACAGAGAGAAUCUGGGCCAGGCAGGCAUCAAAAGAAAUAGUCUUGCGCUCAACCAGAAAGUCUGUAAUCAUUUUAAGGGUA,1.88
14,GUUAACGGUCAUAGGCCAUGGAAUCUAGGAGCACCAUUUCGCUGCCAGUGAAGAAAUGAACAACGAAAAUCUGGGCCAGGCAGGCAUCAAAAGUAAUUGUCUUGCGCCCAACCAGAGAGUCUGUAAUCAUUUUAAGGGUA,0
15,GUUAACGGUCAUAGGCCAUGGAAUCUAGGAGCACCAUUUCGCUGCCAGUGAAGAAAUGAACAAAGUAAAUCUGGGCCAGGCAGGCAUCAAAAGAAAUAGUCUUGCGCUCAACCAGAAAGUCCGUAAUCAUUUUAAGGGUA,0.96
16,GUUAACGGUCAUAGGCCAUGGAAUCUAGGAGCACCAUUUCGCUGCCAGUGAAGAAAUGAACAAAGAGAAUCUGGGCCAGGCAGGCACCAAAAGAAAUAGUCUUGCGCUCAACCAGAAAGUCUGUAAUCAUUUUAAGGGUA,1.13
17,GUUAACGGUCAUAGGCCAUGGAAUCUAGGAGCACCAUUUCGCUGCCAGUGAAGAAAUGAACAAAGAAAGUCUGGGCCAGGCAGGCAUCAAAAGAAAUAGUCUGGCGCUCAACCAGAAAGUCUGUAAUCAUUCUAAGGGUA,0.01
18,GUUAACGGUCAUAGGCCAUGGAAUCUAGGAGCACCAUUUCGCUGCCAGUGAAGAAAUGAACAAAGAAAAUCUGGGCCAGGCAGGCAUCAAAAGGAAUAGUCUUGCGCUCGACCAGAAAGUCUGUAAUCAUUUUAAGGGUA,0.13
19,GUUAACGGUCAUAGGCCAUGGAAUCUAGGAGCACCAUUUCGCUGCCAGUGAAGAAAUGAACAAAGAAAAUCUGGGCCAGGCAGGCAUCAAAAGGAAUAGUCUUGCGCCCAACCAGAAAGUCUGUAAUCAUUUUAAGGGUA,0
20,GUUAACGGUCAUAGGCCAUGGAAUCUAGGAGCACCAUUUCGCUGCCAGUGAAGAAAUGAACAAAGAAAAUCUGGGCCAGGCAGGCAUCAAAAGAAAUAGUCUUGCGCUCAACCAGACAGUCUGUAAUCACUUUAAGGGUA,0.26
